In the RNAGym collection of RNA variant scans (doi:10.7554/elife.90254):
The source gives no read counts; variants with many changes may rest on few reads.

B1: LINE1-full (parent)
chain: UACGUAGGUGGUUUUCCCCUGAUAGUGCUAAGGGGGCCUGGAAGUUUGGACUGGGCAGAGCUCAACACAGCGUGGCAAAGUGGCUGUGGCUAGACUGCCUCUCUGGAUUCCUCGUCACUCAGCAGGGCAUCUCUGAGAGAAAUGCC

Variants of: B1
Experiment: self-cleavage, relative activity (ratio to wild type); higher = more cleavage; in vitro, sequencing; the parent is a self-cleaving ribozyme

| Variant | self-cleavage |
| --- | --- |
| UACGUAGGUGGUUUUCCCCUGAUAGUGCUAAGGGGGCCUGGAAGUUUGGACUGGGCAGAGCUCAACACAGCGUGGCAAAGAGGCUGUGGCUGGACUGCCUCUCUGGAUUCCUCAUCACUCAGCAGGGCAUCUCUGAGAGAAAUGCC [U81A A92G G114A] | 0.12 |
| UACGUAGGUGGUUUUCCCCUGAUAGUGCUAAGGGGGCCUGGAAGUUUGGACUGGGCAGAGCUCAACACAGCGUGGCAAAGAGGCUGUGGCUGGACUGCCACCCUGGAUUCCUCGUCACUCAGCAGGGCAUCUCUGAGAGAAAUGCC [U81A A92G U100A U102C] | 0.61 |
| UACGUAGGUGGUUUUCCCCUGAUAGUGCUAAGGGGGCCUGGAAGUUUGGACUGGGCAGAGCUCAACACAGCGUGGCAAAGAGGCUGUGGCUAGACUGCCUCUCUGGGUUCCUCGUCACUCAGCAGGGCAUCUCUGAGAGGAAUGCC [U81A A107G A140G] | 2.46 |
| UACGUAGGUGGUUUUCCCCUGAUAGUGCUAAGGGGGCCUGGAAGUUUGGACUGGGCAGAGCUCAACACAGCGUGGCAAAGAGGCUGUGGCUAGACUGCCUCUCUGGGUUCCUCGUCACCCAGCAGGGCAUCUCUGAGAGAAAUGCC [U81A A107G U119C] | 0.89 |
| UACGUAGGUGGUUUUCCCCUGAUAGUGCUAAGGGGGCCUGGAAGUUUGGACUGGGCAGAGCUCAACACAGCGUGGCAAAGAGGCUGUGGCUAGACUGCCUCUCUGGUUUCCUCGUCCCUCAGCAGGGCAUCUCUGAGAGAAAUGCC [U81A A107U A117C] | 1.67 |
| UACGUAGGUGGUUUUCCCCUGAUAGUGCUAAGGGGGCCUGGAAGUUUGGACUGGGCAGAGCUCAACACAGCGUGGCAAAGAGGCUGUGGCUAGACUGCUUCUCUGGAUUCCUCGUCACUCAGCAGGGCUUCUCUGAGAGAAAUGCC [U81A C99U A129U] | 0.78 |
| UACGUAGGUGGUUUUCCCCUGAUAGUGCUAAGGGGGCCUGGAAGUUUGGACUGGGCAGAGCUCAACACAGCGUGGCAAAGAGGCUGUGACUAGACUGCCCCUCUGGAUUCCUCGUCACUCAGCAGGGCACCACUGAGAGAAAUGCC [U81A G89A U100C U130C U132A] | 0.01 |
| UACGUAGGUGGUUUUCCCCUGAUAGUGCUAAGGGGGCCUGGAAGUUUGGACUGGGCAGAGCUCAACACAGCGUGGCAAAGAGGCCGUGGCUAGACUGCCUCUCUGGAUUCCUCGUCUCUCAGCAGGGCAUCUCUGAGAGAAAUGCC [U81A U85C A117U] | 0.21 |
| UACGUAGGUGGUUUUCCCCUGAUAGUGCUAAGGGGGCCUGGAAGUUUGGACUGGGCAGAGCUCAACACAGCGUGGCAAAGAGGCUGUGGCCAGACUGCCUCUCUGGAUUCCUCGCCACUCAGCAGGGCAUCUCUGAGAGAAACGCC [U81A U91C U115C U143C] | 1.31 |
| UACGUAGGUGGUUUUCCCCUGAUAGUGCUAAGGGGGCCUGGAAGUUUGGACUGGGCAGAGCUCAACACAGCGUGGCAAAGAGGCUGUGGCCAGACUGCCUCUCUGGAUUCCUCGUCACUCAGCAGGGCACCUCUGAGAGAAAUGCC [U81A U91C U130C] | 0.68 |
| UACGUAGGUGGUUUUCCCCUGAUAGUGCUAAGGGGGCCUGGAAGUUUGGACUGGGCAGAGCUCAACACAGCGUGGCAAAGAGGCUGUGGCUAGACCGCCUCUCCGGAUUCCUCGCCACUCAGCAGGGCAUCUCUGAGAGAAAUGCC [U81A U96C U104C U115C] | 0.4 |
| UACGUAGGUGGUUUUCCCCUGAUAGUGCUAAGGGGGCCUGGAAGUUUGGACUGGGCAGAGCUCAACACAGCGUGGCAAAGAGGCUGUGGCUAGACCGCCUCUCUGGAUUCCUCGUCACUCAGCAGGGCACCUCUGAGAGAAAUGCC [U81A U96C U130C] | 0 |
| UACGUAGGUGGUUUUCCCCUGAUAGUGCUAAGGGGGCCUGGAAGUUUGGACUGGGCAGAGCUCAACACAGCGUGGCAAAGAGGCUGUGGCUAGACUGCCCCUCUGGAUUCCUCGUCACUCAGCAGGGCAUCUCUGAGAGAAGUGCC [U81A U100C A142G] | 2.9 |
| UACGUAGGUGGUUUUCCCCUGAUAGUGCUAAGGGGGCCUGGAAGUUUGGACUGGGCAGAGCUCAACACAGCGUGGCAAAGAGGCUGUGGCUAGACUGCCUCACUGGAUUCCUCGUCACUCAGCAGGGCAUCUCUGAGAGAAGUGCC [U81A U102A A142G] | 1.74 |
| UACGUAGGUGGUUUUCCCCUGAUAGUGCUAAGGGGGCCUGGAAGUUUGGACUGGGCAGAGCUCAACACAGCGUGGCAAAGAGGCUGUGGCUAGACUGCCUCUCUGGAUCCCUCGUCACUCAGCAGGGCAUCCCUGAGAGAAAUGCC [U81A U109C U132C] | 1.92 |
| UACGUAGGUGGUUUUCCCCUGAUAGUGCUAAGGGGGCCUGGAAGUUUGGACUGGGCAGAGCUCAACACAGCGUGGCAAAGAGGCUGUGGCUAGACUGCCUCUCUGGAUUCCACGUCACUCAGCAGGGCAUCUCUGAGAGAGAUGCC [U81A U112A A141G] | 1.64 |
| UACGUAGGUGGUUUUCCCCUGAUAGUGCUAAGGGGGCCUGGAAGUUUGGACUGGGCAGAGCUCAACACAGCGUGGCAAAGAGGCUGUGGCUAGACUGCCUCUCUGGAUUCCCCGUCACUCAGCAGGGCAUCUCUGAGAGAAAUCCC [U81A U112C G144C] | 2.31 |
| UACGUAGGUGGUUUUCCCCUGAUAGUGCUAAGGGGGCCUGGAAGUUUGGACUGGGCAGAGCUCAACACAGCGUGGCAAAGCGGCUGUGGCUAGACUGCCUCUCUGGAUUCCUCGUCUCUCAGCAGGGCAUCUCCGAGAGAAAUGCC [U81C A117U U134C] | 1.29 |
| UACGUAGGUGGUUUUCCCCUGAUAGUGCUAAGGGGGCCUGGAAGUUUGGACUGGGCAGAGCUCAACACAGCGUGGCAAAGCAGCUGUGGCUAGACUGCCUCUCUGGAUUCCUCGCCACACAGCAGGGCAUCUCUGAGAGAAAUGCC [U81C G82A U115C U119A] | 1.71 |
| UACGUAGGUGGUUUUCCCCUGAUAGUGCUAAGGGGGCCUGGAAGUUUGGACUGGGCAGAGCUCAACACAGCGUGGCAAAGCGGCUGUAGCUAGACUGCCUCUCUGGAUUCCUCGUCACUCAGCAGGGCAUCUCUGAGAGGAAUGCC [U81C G88A A140G] | 0 |
